PubChem BioAssay (NCI)
The source holds several records for some structures; these can differ, active in one and inactive in another.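 Each cell line was grown in a 96-well plate and treated with one concentration of compound for 48 hours. Values below 10 were considered active.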 Certain results were filed several times, with different values. Only these are listed. There may be further records. These are repeated runs of one drug, at the concentration stated with the values; one value stands for one run. Brackets with × stand for listed records that agree.

How the values were obtained:
RPMI-8226 leukemia = assay: NCI-60 one-dose screen, 48 h (100 = growth as untreated, 0 = no growth, -100 = all killed); details: 2.5 mM
OVCAR-8 ovarian = assay: as above; details: 2.5 mM

O=c1[nH]cc(F)c(=O)[nH]1
growth (RPMI-8226 leukemia; runs of 1992): inactive: 27.1, 18.2, 20.1, 13.4 (2×), 50.2, 22.2, 17.8, 14.9 (3×), 21.2, 34.6, 28.7, 66.9, 20.5 (3×), 15.4, 19.9, 10.2, 19.1 (2×), 14.2, 15.9, 12, 12.7, 25.4, 26.1, 36.6, 10.1 (3×), 17.3, 26.9, 28.1, 13.8, 68.2, 21.9, 47.1, 20.8 (2×), 10.8, 22.5 (2×), 14.6 (4×), 21.4, 37.1, 17.6, 29.7, 10.3, 17.9 (2×), 17 (2×), 49.7, 30.2, 11.2, 20, 16.2 (2×), 33.6, 24.4, 11.5, 15.7, 14.8, 21.3, 19.6, 40.5, 27.7, 12.2, 16.4, 12.6, 57.6, 12.8, 20.6, 16.1, 10.6, 27.9, 18% and active: 8.77, 8.04, 6.69, 9.93, -7.59, 4.66, -0.254, 4.09, 0.12, -40.2, 9.6, 9.87, -31, -38.4, -16.1, 7.93, 8.67, 5.22, 5.82, 6.27, 2.83, 5.65, 8.87, 8.29, 3.68, 8.51, -1.66, -16.2, 5.76, 6.57, 4.58, 9.05, 5.77, 8.71% | growth (RPMI-8226 leukemia; runs of 1993): inactive: 12.5 (2×), 22.5, 53.4, 11.4, 16.6, 15, 24.6, 14.7, 29.5, 12.2, 14.9 (2×), 34.6, 13.4 (2×), 12.8, 11.6 (2×), 18.9, 37.2, 23.3, 10.9, 11.7, 47.1, 19.8, 11.1, 114, 55.9, 36.2, 12.4, 11.3, 14, 24.1% and active: 4.14, 3.6, 3.02, -22.3, -5.85, 1.75, 7.96, 4.53, -15.6, 5.8, 4.13, 8.57% | growth (RPMI-8226 leukemia; runs of 1994): inactive: 25.5, 17.8, 12.7, 47.4, 39.1, 16.1, 22.1, 19.6 (2×), 26.6, 35.9, 16.6, 12.9, 10.5, 16.5, 29.8, 27, 34.1, 16.2% and active: 8.57, 8.29, 5.65, 6.13, 9.98, 6.55, 6.89, 7.82, -4.4, -30.3, -0.348, -6.23% | growth (RPMI-8226 leukemia; runs of 1995): inactive: 14.6, 21.2, 34.5, 26.7, 19.1, 14.7, 46.5, 13.6, 12.1, 35.2, 23.2, 42.4, 15.3, 18.5, 18.6% and active: 4.19, 6.76, -2.83, -35.5, -17.1, 0.876, -8.03, 0.101, 1.52, 7.3, 9.08, -17.6, -7.78, -18.8, 9.39, 4.28, 6.33, -7.97, -15.7% | growth (RPMI-8226 leukemia; runs of 1996): inactive: 11.5 (2×), 46.1, 25.9, 18.6, 10.3, 45.7, 10.4, 10.9, 17.5, 28.7, 26.2, 21.7, 19.6, 24.4, 34.8% and active: -16.6, -13.1, -8.75, -26.9, 4.4, -18.5, 0.721, -12.2, 8.86, -10.3, 6.93, 5.04, 5.5, -60.1, -16, -38.6, -6.45, -23.4, -14, -9.47, 4.21 (2×), 8.27, 0.46, -4.97, 5.73, -23.6, 7.59, 6.75% | growth (RPMI-8226 leukemia; runs of 1997): active: 5.21, 2.11, 4.81, 8.08, 3.28, -21.6, -28.3, -15.5, 4.55, -31.7, 7.69, 0.354, -0.75, 7.11, -5.17, -3.43, 3.5, -4.89, -10.6, -75.8, -3.7% and inactive: 78.2, 21.1, 10.6, 13.3, 15.4 (2×), 17.9 (2×), 15.2, 33.1, 30.8, 25.3, 10.7, 44, 11.6, 16, 14.1, 67.2, 22.7, 10.9% | growth (RPMI-8226 leukemia; runs of 1998): inactive: 21.2, 16.7, 36.2, 13.7, 16.2, 19.7, 22.5, 11.4, 15.2, 41.4% and active: 3.21, -19, -0.939, -11.4, 3.95, 2.94, 9.48% | growth (RPMI-8226 leukemia; runs of 1999): inactive: 41.2%, 104% and active: 4.37, 1.36, -65.4, -53.4, -20.8, -82.6, -42.6, 0.721, 3.76, 5.92, 4.95, 3.96% | growth (RPMI-8226 leukemia; runs of 2000): active: -5.6%, -18.4% and inactive: 14.1% (2×) | growth (OVCAR-8 ovarian; runs of 1991): inactive: 17.8, 20.2 (2×), 17.6, 18.2, 19.3, 24.2, 25.9, 46.8, 20, 16.7, 15.5, 17.1, 27.6, 10.7, 16.8, 33.4, 30.2, 19.7% and active: -27.3% | growth (OVCAR-8 ovarian; runs of 1992): inactive: 17.8, 11.7, 21, 83.9, 33.1 (2×), 28, 28.4 (3×), 16.7, 22.8, 14.4, 10.3, 29.1, 23.6, 33.6 (2×), 24.7, 24.5, 42.4, 22.9, 16.2, 22.2, 52.3, 32.9, 30.7, 11, 27.3 (3×), 21.4, 26.1, 38.9, 44.5, 36.7 (2×), 31, 42.6, 33.2, 18.6, 19.2, 23.3, 28.8, 24, 20.7, 25.8 (2×), 20.5, 13, 31.4, 30.2, 28.1 (3×), 30.5, 25.9 (2×), 24.9 (2×), 22.7, 20, 29.7, 20.6, 93.9, 34.2, 38.6, 18.7, 34.4, 30.1, 24.8, 35, 38.2, 19.5, 29.6 (2×), 18.3, 31.1, 29.4, 21.8, 28.9, 26.7 (2×), 26.4, 21.2, 18, 17.1, 36.4, 39.3, 30.3, 38, 42.9, 34.5, 27.2, 12.5, 17.9, 19.4, 47, 14.2, 27.8, 24.1, 25.3, 13.3, 26, 29.9, 32.7, 14.5, 32.1, 27, 35.5, 28.7, 16.1, 28.6, 12.1, 37.2, 21.7% and active: 9.65, 6.39, 5.35, 0.217, -62.5% | growth (OVCAR-8 ovarian; runs of 1993): inactive: 14.4, 20.9, 31.6, 29.4, 28, 23.5, 23.9, 30.8, 29.1, 32.6, 25.2, 27.6 (2×), 25.5, 14.1, 29.9, 31.5, 18.3, 28.6, 31.3 (2×), 22.5, 16.9, 24.1, 39.3, 31, 34.3, 28.2 (2×), 20.2 (3×), 20.3, 24.8, 27.8, 15.3 (2×), 77.2, 16.7, 66.8, 20, 12.6, 41, 26.3, 27.3, 26.1% and active: -16.2% | growth (OVCAR-8 ovarian; runs of 1994): inactive: 28.9, 22.4, 20.1, 26, 13, 27.6, 15.7, 25.3 (2×), 26.3, 15.8, 34.3, 15.3, 22.6, 42.4, 14.7, 17.6, 29.2, 24.4, 24.2, 30.6, 22.7, 27.2, 18.7, 25.4, 35.4, 24.7, 31.5, 16.8, 38% and active: 1.2, 9.15, 8.29, 6.51% | growth (OVCAR-8 ovarian; runs of 1995): inactive: 35.7, 30.8, 18.5, 18.2, 23.1, 26.5 (2×), 28.1, 29.7 (2×), 25, 15.6, 36.6, 12.2, 21.3, 41.1, 28.6, 22.7, 31.3, 30.3, 19.4, 21.5, 22, 26.3, 32, 52.5, 38.3, 33.7, 35.4, 18.9, 36.2, 28.3, 27.9, 21.9, 17.2, 17.7, 34.5% and active: -1.59% | growth (OVCAR-8 ovarian; runs of 1996): inactive: 28.8, 22.8, 22.4, 35.3, 35.1, 26.6 (2×), 24.4 (2×), 30.1, 21.9, 16.2, 24.9, 37.2, 30.2, 34.2, 33.1, 33, 40.8, 18.3, 28.9, 34, 27.1, 34.9, 36.7, 20.1 (2×), 29.9 (2×), 27.3, 21.4, 28, 31, 29.2, 21, 25.2, 32.8, 37.9, 31.3, 41, 37.4, 24.3, 21.2, 21.3, 16.5, 34.8, 43.4, 38.2, 24.5, 35.6, 24.1, 36.5, 29% and active: 6.82, -24.2, 5.92, 9.57, 5.85, 6.1%
